Test results published in patent publication US20130136712A1, “Malodor Control Compositions Comprising Malodor Control Polymers And Acid Catalysts And Methods Thereof” (priority 2011, published 2013).
For at least one compound, name, drawing or mass did not settle the structure.

Experiments:
[1] = Analytical test, effect of volatile aldehydes (and acid catalyst) on amine-based malodor, headspace GC/MS; details: 1 μL sample in 10 mL vial
[2] = Analytical test, effect of volatile aldehydes (and acid catalyst) on sulfur-based malodor, headspace GC/MS; details: 1 μL sample in 10 mL vial

Compound | At least 20% butylamine reduction at 40 secs.? [1] | At least 20% butanethiol reduction at 30 mins.? [2]
COc1cc(OC)c(C=O)c(OC)c1 [2,4,6-Trimethoxy-benzylaldehyde] | No (At least 20% butylamine reduction at 40 secs.?) | No (At least 20% butanethiol reduction at 30 mins.?)
CCOc1ccccc1C=O [2-ethoxy benzylaldehyde] | Yes (At least 20% butylamine reduction at 40 secs.?) | Yes (At least 20% butanethiol reduction at 30 mins.?)
CC(C)(C)c1ccc(C=O)cc1 [4-tertbutyl benzylaldehyde] | Yes (At least 20% butylamine reduction at 40 secs.?) | No (At least 20% butanethiol reduction at 30 mins.?)
Cc1ccc(C=O)s1 [5-methyl-thiophene-carboxaldehyde] | No (At least 20% butylamine reduction at 40 secs.?) | Yes (At least 20% butanethiol reduction at 30 mins.?)
CCCCCC(C=O)=Cc1ccccc1 [Amyl cinnamic aldehyde, 2-pentyl-3-phenylpropenoic aldehyde] | No (At least 20% butylamine reduction at 40 secs.?) | No (At least 20% butanethiol reduction at 30 mins.?)
O=Cc1ccccc1 [Benzylaldehyde] | Yes (At least 20% butylamine reduction at 40 secs.?) | No (At least 20% butanethiol reduction at 30 mins.?)
CC(C=O)Cc1ccc(C(C)C)cc1 (stereo not drawn) [Cymal, Alpha-methyl-p-isopropyl phenyl propyl aldehyde] | Yes (At least 20% butylamine reduction at 40 secs.?) | No (At least 20% butanethiol reduction at 30 mins.?)
CCCCCCCCCC=O [Decyl aldehyde] | Yes (At least 20% butylamine reduction at 40 secs.?) | No (At least 20% butanethiol reduction at 30 mins.?)
CC(C=O)Cc1ccc2c(c1)OCO2 (stereo not drawn) [Helional, alpha-methyl-3,4-(methylenedioxy)-hydrocinnamaldehyde] | Yes (At least 20% butylamine reduction at 40 secs.?) | No (At least 20% butanethiol reduction at 30 mins.?)
CCCCCCCCCCCC=O [Lauric aldehyde] | Yes (At least 20% butylamine reduction at 40 secs.?) | No (At least 20% butanethiol reduction at 30 mins.?)
CC1(C)C2CC=C(CCC=O)C1C2 (stereo not drawn) [Pino acetaldehyde] | Yes (At least 20% butylamine reduction at 40 secs.?) | Yes (At least 20% butanethiol reduction at 30 mins.?)
O=Cc1cccs1 [Thiophene Carboxaldehyde] | Yes (At least 20% butylamine reduction at 40 secs.?) | No (At least 20% butanethiol reduction at 30 mins.?)
